Reference: PubChem BioAssay AID686979 (National Center for Advancing Translational Sciences (NCATS), 2013)
Among all 420,000 compounds or so, about 50,000 (12%) were called active. Inconclusive means that the source gave no clear call. Such entries were picked first, then a sample of the others. Calls follow the shape of the dose curve; as a rule, active = well fitted inhibition curve with a large enough effect; inconclusive = small, poorly fitted or top-dose-only effect; inactive = flat fitted curve, though single readings scatter. Potencies of inconclusive entries are left out as doubtful fits.

Assay: qHTS for Inhibitors of human tyrosyl-DNA phosphodiesterase 1 (TDP1): qHTS in cells in presence of CPT; also: nearly all actives have a fitted effect of over 55% in size
Conditions: chicken DT40 Tdp1-/-;hTDP1 cells + 20 nM CPT, ATP luminescence, 48 h; activity change, negative = growth inhibition: at 46.2 µM (top of the series) unless noted
In short: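 Chicken DT40 Tdp1-/- cells complemented with human TDP1, 400 cells/well, exposed to compounds plus 20 nM camptothecin for at least 48 h at 37 C; viability read as ATP content by CellTiter-Glo luminescence.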
% is scaled to controls: 0 for no effect and ±100 for the full control effect; potency is read from the fitted curve at half-maximal effect; tags tell the direction and shape of the fitted curve.

SMILES	activity change, negative = growth inhibition	Potency
COc1ccc(S(=O)(=O)NC(C(=O)OCC(=O)Nc2ccc(N3CCOCC3)cc2)C(C)C)cc1 (stereo unspecified)	inactive: -23.7%	
c1coc(C2=NC(c3ccco3)C(c3ccco3)N2)c1 (stereo unspecified)		inconclusive [inhibitor, partial curve, poor fit]
CCCCOc1c(Cl)cc(C(=O)N2CCN(CC(=O)N3CCCC3)CC2)cc1OCC		inconclusive [inhibitor, single point]
CC(=O)Nc1ccc(NC(=O)c2ccc3c(c2)CCN3S(C)(=O)=O)cc1	inactive: 3.43%	
Cc1ccc(N2CC(NC(=O)c3cccs3)CC2=O)cc1C (stereo unspecified)		inconclusive [inhibitor, single point]
COc1ccc(CCNc2nc(N3CCCCC3)nc(N3CCCCC3)n2)cc1OC		inconclusive [inhibitor, single point]
CCn1c(C)c(P(c2ccccc2)c2ccccc2)[n+]2ccccc12		active: 2.31 µM
C=CCNCCCCOc1ccc(OCc2ccccc2)cc1		inconclusive [inhibitor, single point]
COC(=O)CNC(=O)c1ccc(F)cc1	inactive: 8.45%	
O=C1/C(=C\c2ccccc2)CCC/C1=C/c1ccccc1		active: 20.6 µM
CCOc1ccc(-c2nc(N)ncc2-c2ccc(OC)cc2)c(O)c1		inconclusive [inhibitor, single point]
Cc1ccccc1NC(=O)Cc1nc(COC(=O)CCNS(=O)(=O)c2ccccc2)cs1	inactive: 2.21%	
Cc1ccc(Cc2nnc(SCC(=O)Nc3ccccc3)[nH]c2=O)cc1		inconclusive [inhibitor, single point]
CCCC(C(=O)Nc1ccncc1)c1ccccc1 (stereo unspecified)		inconclusive [inhibitor, single point]
Cc1ccc(C(C)C)c(OCC(=O)N2CCN(c3ncccn3)CC2)c1	inactive: -23.2%	
CC(=O)c1ccc(N2CCN(C(=O)Cc3cccs3)CC2)cc1		inconclusive [inhibitor, partial curve]
Cc1cc(C)nc(N2CCCC(C(=O)NCc3ccccc3)C2)n1 (stereo unspecified)	inactive: -0.381%	
Cc1ccc2oc3nc(C)c(C(=O)O)cc3c(=O)c2c1		inconclusive [inhibitor, partial curve]
CCOc1ccccc1CNC(=O)c1cc2oc3ccccc3c2n1C		inconclusive [inhibitor, single point]
CCCNC(=O)NC1CCCc2ccccc21 (stereo unspecified)	inactive: -14.3%	
COc1ccc(C=NNC(=O)c2ccccc2OCc2ccc(F)cc2)c(OC)c1		inconclusive [inhibitor, partial curve, poor fit]
O=[N+]([O-])c1cc([N+](=O)[O-])c(Oc2cccc3ccccc23)cc1NN1CCCCC1		inconclusive [inhibitor, single point]
Cc1n[nH]c(=O)c2c(NC(=O)CSc3cc(Cl)ccc3Cl)oc(C)c12	inactive: 4.94%	
Cc1cc(C(=O)COc2ccc(F)cc2Br)c(C)n1C	inactive: -11.7%	

SMILES	activity change, negative = growth inhibition	Potency
Cc1ccc(C(=O)C2=C(O)C(=O)N(Cc3ccco3)C2c2ccc(N(C)C)cc2)o1 (stereo unspecified)		inconclusive [inhibitor, single point]
COc1ccc2nc3oc(C(=O)NC4CCN(Cc5ccccc5)CC4)cc3cc2c1		active: 17.8 µM
CCC(C)(C)C1CCC(=NNC(=S)Nc2ccccc2)CC1 (stereo unspecified)		inconclusive [inhibitor, single point]
CC(C(=O)NC1CCCCC1)N1C(=O)c2cccc3cccc1c23 (stereo unspecified)		inconclusive [inhibitor, partial curve]
CN(C(=O)c1ccc(Cl)cc1)C1=CCCCC1CCC#N (stereo unspecified)	inactive: 19.5%	
Cc1ccc(NC(=O)c2ccoc2C)cc1C		inconclusive [inhibitor, partial curve]
CCc1ccc(C(=O)c2cn(CC(=O)Nc3ccc4c(c3)OCO4)c3ccc(OC)cc3c2=O)cc1		inconclusive [inhibitor, single point]
CCOC(=O)C1=C(c2ccccc2)NC(SC)=C(C#N)C1c1ccco1 (stereo unspecified)		active: 18.4 µM
CCN1CCN(c2ncnc3c2cnn3-c2ccc(Cl)cc2)CC1		inconclusive [inhibitor, single point]
COc1cc2cc[n+]3cc4c(OC)c(OC)ccc4cc3c2cc1OC		active: 2.31 µM
CCC(NC(=O)c1ccccc1O)c1ccccc1 (stereo unspecified)		inconclusive [inhibitor, partial curve]
COc1ccc(C2CC(=O)N(CC(=O)NCC3CCCO3)c3ccccc3S2)cc1OC (stereo unspecified)	inactive: 8.24%	
O=C(Cn1cnc2c(nnn2-c2ccccc2)c1=O)N1CCOCC1	inactive: 1.58%	
CN(C)/C=C1\C=C(c2ccccc2)OC1=O		inconclusive [inhibitor, single point]
COc1ccc(Nc2oc(-c3ccco3)nc2S(=O)(=O)c2ccc(F)cc2)cc1		inconclusive [inhibitor, single point]
COc1ccc([C@H]2CC(=O)C=C(/C=C/Cc3ccccc3)C2)cc1		inconclusive [inhibitor, single point]
COC(=O)[C@]1(CC(C)C)N[C@H](c2ccc(-c3cccc(Cl)c3)cc2)[C@@H]2C(=O)N(C)C(=O)[C@@H]21		active: 13 µM
CN(C(=O)COC(=O)c1ccc2ccccc2n1)C1CCS(=O)(=O)C1 (stereo unspecified)	inactive: -4.16%	
O=C(/C=N/NC(=O)c1ccc(Cl)cc1Cl)c1ccccc1	inconclusive: -34% [inhibitor]	
O=C(CSc1nnc(-c2ccccc2Br)o1)N1CCc2ccccc2C1	inconclusive: -35.1% [inhibitor]	
N#CCc1ccc(NC(=O)c2ccc(CN3CCc4ccccc4C3)cc2)cc1		inconclusive [inhibitor, single point]
CN(CC(=O)Nc1ccc(Cl)c(Cl)c1)C(=O)CN1C(=O)NC2(CCCC2)C1=O		inconclusive [inhibitor, single point]
OC(COc1ccc2cc(Br)ccc2c1)CN1CCN(c2ccccn2)CC1 (stereo unspecified)		inconclusive [inhibitor, single point]
Cc1ccccc1NC(=O)c1sc(NC(=O)C2CC2)nc1C		inconclusive [inhibitor, single point]

SMILES	activity change, negative = growth inhibition	Potency
CCN(CC)S(=O)(=O)c1cccc(C(=O)OC2CCOC2=O)c1 (stereo unspecified)		inconclusive [inhibitor, partial curve, poor fit]
CCOc1ccc(NC(=O)C2CCC(CNS(=O)(=O)c3ccc(Br)s3)CC2)cc1 (stereo unspecified)	inactive: -20.7%	
COc1ccc(OC)c(CNC(=O)C(C)n2c(C)c3cnn(-c4ccccc4)c(=O)c3c2C)c1 (stereo unspecified)		inconclusive [inhibitor, single point]
COc1ccc(CNC(=O)C2CCCC2)cc1	inactive: -6.86%	
CCOC(=O)CCN(c1ccccc1)S(=O)(=O)c1ccc(-c2ccc(=O)[nH]n2)s1		inconclusive [inhibitor, single point]
COc1cc2c(cc1OC)C1(NCC2)C(=O)Nc2ccccc21 (stereo unspecified)	inactive: -12.1%	
COc1ccccc1N1CCN(C(=O)c2cccc3c(=O)c(C)c(-c4ccccc4)oc23)CC1		inconclusive [inhibitor, single point]
O=C(COC(=O)C1CC1)NC(=O)c1ccccc1		inconclusive [inhibitor, single point]
Cc1ccccc1NC(=O)CSc1nnc(Cc2ccccc2)c(=O)n1N	inactive: -9.15%	
NC(=O)c1ccc(-c2nnn(CC(=O)N(C3CCCC3)C3CCS(=O)(=O)C3)n2)cc1 (stereo unspecified)	inactive: 7.02%	
CCOC(=O)N(C)c1ccc(C(O)(C(F)(F)F)C(F)(F)F)cc1		inconclusive [inhibitor, partial curve]
O=C(CSc1ccc([N+](=O)[O-])cn1)Nc1cc(C(F)(F)F)ccc1N1CCOCC1		inconclusive [inhibitor, single point]
CCOC(=O)c1ccc(NC(=O)CC2Sc3ncnn3C2=O)cc1 (stereo unspecified)		active: 5.8 µM
CCOC(=O)/C=C/C(=O)Nc1ccc(S(=O)(=O)Nc2c(C)cc(C)cc2C)cc1		active: 7.31 µM
O=C(N/C(=C\c1ccc([N+](=O)[O-])cc1)C(=O)N1CCCCC1)c1ccccc1		inconclusive [inhibitor, single point]
CC1=C(c2ccc(C)c(C)c2)S(=O)(=O)N=C1N1CCC(C(=O)N2CCC(C)CC2)CC1		inconclusive [inhibitor, single point]
CCCn1c(SCC(=O)N2c3ccc(F)cc3CCC2C)nnc1-c1ccccn1 (stereo unspecified)		inconclusive [inhibitor, single point]
Oc1c(C(Nc2ccccn2)c2ccccc2)ccc2cccnc12 (stereo unspecified)		inconclusive [inhibitor, single point]
Cc1ccc2nc(-c3cccc(-c4nc5ccc(C)cc5o4)n3)oc2c1		inconclusive [inhibitor, single point]
CCN(Cc1cc2cccc(C)c2[nH]c1=O)C(=O)c1ccccc1OC		inconclusive [inhibitor, single point]
COc1cccc(C(=O)Nc2cc(C)nn2-c2ccccc2)c1OC		inconclusive [inhibitor, single point]
COc1cccc(OC)c1C(=O)NC(=S)Nc1ccc2c(c1)Cc1ccccc1-2		inconclusive [inhibitor, single point]
Brc1cccc(Cn2c(-c3cncs3)nc3ccccc32)c1		inconclusive [inhibitor, single point]
